Hit rate of the full screen: of about 200,000 compounds, about 860 (0.43%) were called active. This list was built around the results that the source calls inconclusive (neither active nor inactive); the mix of calls is not that of the screen. The call rests on the fitted dose curve; in most records, active means well fitted inhibition curve with a large enough effect; inconclusive means small, poorly fitted or top-dose-only effect; inactive means flat fitted curve, though single readings scatter. Where the call is inconclusive, the potency comes from a doubtful curve fit.
What follows are compounds tested against Cruzipain (Trypanosoma cruzi) (UniProt P25779) (assay: qHTS Assay for Promiscuous and Specific Inhibitors of Cruzain (with detergent)). Details: purified cruzain, Z-FR-AMC fluorescence, 0.01% Triton.
Sequence of UniProt P25779 (P25779 whole entry, looked up): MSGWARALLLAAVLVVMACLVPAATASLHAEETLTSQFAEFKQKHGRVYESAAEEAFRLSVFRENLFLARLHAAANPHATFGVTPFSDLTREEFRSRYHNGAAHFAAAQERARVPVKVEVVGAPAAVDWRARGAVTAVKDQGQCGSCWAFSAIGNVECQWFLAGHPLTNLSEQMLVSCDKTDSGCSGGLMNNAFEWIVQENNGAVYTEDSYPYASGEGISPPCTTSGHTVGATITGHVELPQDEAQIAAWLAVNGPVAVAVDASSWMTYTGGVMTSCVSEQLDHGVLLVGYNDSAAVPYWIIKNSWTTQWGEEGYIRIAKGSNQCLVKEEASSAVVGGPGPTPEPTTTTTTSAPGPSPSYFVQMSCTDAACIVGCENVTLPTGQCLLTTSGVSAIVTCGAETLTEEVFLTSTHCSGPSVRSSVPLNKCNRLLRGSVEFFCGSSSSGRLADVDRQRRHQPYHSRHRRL
Outline: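 Z-FR-AMC hydrolysis (2 uM substrate) by cruzain (1.5 nM) monitored kinetically at ex 360/em 450 nm after 15 min room-temperature compound exposure; 0.01% Triton X-100, pH 5.5, 5 mM DTT.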
`CC1=N/C(=C\c2ccc([N+](=O)[O-])cc2)C(=O)N1c1ccc(Br)c(C)c1` was tested, and the max response, negative = inhibition was inactive: -3.34%.
With `Cc1nc(N)sc1-c1csc(Nc2ccccn2)n1` the Potency was inconclusive: 25.1 µM [inhibitor, single point].
`Cn1c(N)c(C(=O)COC(=O)c2cc(-c3ccco3)nc3ccccc23)c(=O)n(Cc2ccccc2)c1=O` was tested, and the Potency was inconclusive: 25.1 µM [inhibitor, single point].
In the case of `Cc1cc2c(C)c(C)c(=O)[nH]c2cc1N`, the Potency is reported as inconclusive: 28.2 µM [inhibitor, single point].
With `CC(C)(C)OC(=O)N[C@@H](Cc1ccccc1)c1nnc(SCC(=O)O)o1` the Potency was active: 25.1 µM.
`CSC1=NCCN1C(=O)c1c(F)cccc1Cl` was tested, and the Potency was inconclusive: 15.8 µM [inhibitor, single point].
With `CCOc1ccc(C2c3[nH]c4ccccc4c3CCN2C(=O)CSc2ccccc2)cc1` (stereo not given) the max response, negative = inhibition was inactive: 4.54%.
In the case of `CCc1ccccc1NC(=O)c1cc(-c2ccc(OC)cc2)on1`, the max response, negative = inhibition is reported as inactive: -0.109%.
For `O=C(CC(c1ccco1)C1CCCCC1=O)c1ccco1` (stereo not given), the Potency was inconclusive: 28.2 µM [inhibitor, single point].
In the case of `Cn1c(C(=O)NCc2ccccn2)cc2c(=O)n3ccccc3nc21`, the Potency is reported as inconclusive: 31.6 µM [inhibitor, single point].
For `Cc1cc(C)nc(SCc2cc(=O)c(OC(=O)c3ccc(Br)o3)co2)n1`, the Potency was inconclusive: 25.1 µM [inhibitor, single point].
`O=c1oc2c(CN3CCOCC3)c(O)ccc2c2c1CCC2` was tested, and the Potency was inconclusive: 28.2 µM [inhibitor, single point].
In the case of `CCOC(=O)N1CCN(CC(=O)Nc2ccc(C)c(Br)c2)CC1`, the max response, negative = inhibition is reported as inactive: 1.11%.
In the case of `Cc1ccc(CNS(=O)(=O)c2cc(C(=O)Nc3cccc(C(F)(F)F)c3)ccc2F)cc1`, the max response, negative = inhibition is reported as inactive: -5.01%.
In the case of `Cc1cc(-c2ccc(C)c(S(=O)(=O)N(C)c3ccc(C)c(C)c3)c2)on1`, the max response, negative = inhibition is reported as inactive: -3.24%.
For `Cc1ccc(OCCCn2c(CCNC(=O)C3CCCCC3)nc3ccccc32)c(C)c1`, the Potency was active: 2.51 µM.
For `O=C(Nc1ccc(N2CCCC2)cc1)c1ccc(Br)o1`, the Potency was inconclusive: 39.8 µM [inhibitor, single point].
With `O=C(Nc1ccc(-c2nc3ncccc3o2)cc1)c1ccco1` the Potency was inconclusive: 28.2 µM [inhibitor, single point].
In the case of `CCOC(=O)c1c(C)oc2c1c1c(c3ccccc32)OCN(Cc2cccnc2)C1`, the max response, negative = inhibition is reported as inactive: -9.79%.
For `Cc1cc(C)nc(SCc2cc(=O)c(OC(=O)c3ccco3)co2)n1`, the Potency was active: 25.1 µM.
Further: nearly all actives have a fitted effect of over 40% in size.
Potency means the concentration at half of the fitted maximal effect; tags describe the fitted curve by direction and shape.
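Wherever max response, negative = inhibition is given: plate controls were neutral wells for no effect and buffer without enzyme for full effect.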
